Test results reported in article PMC9911399, “Two distinct binding modes provide the RNA-binding protein RbFox with extraordinary sequence specificity”.
Residue numbers refer to the chain shown, from its start. The list shows a part of the results.

T1: RBFOX1 RRM (Homo sapiens, UniProt Q9NWB1 109-208)
T1 sequence: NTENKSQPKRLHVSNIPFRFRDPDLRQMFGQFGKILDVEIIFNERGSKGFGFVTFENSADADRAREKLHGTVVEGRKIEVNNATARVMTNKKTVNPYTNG

B1: GUUCCAA (DNA:RNA)
RNA: GGGAGACCGGAAUUCAGAUUGUCCGUUCCAAUUAAAUCCCGUCGUAGCCACCA
DNA 1: CAATCTGAATTCCGGTCTCCC
DNA 2: TGGTGGCTACGACGGGATT
B2: UGAGGAC (DNA:RNA)
RNA: B1 RNA with G25U, U26G, U27A, C28G, C29G, A31C
DNA 1: CAATCTGAATTCCGGTCTCCC
DNA 2: TGGTGGCTACGACGGGATT
B3: CCACCGA (DNA:RNA)
RNA: B1 RNA with G25C, U26C, U27A, A30G
DNA 1: CAATCTGAATTCCGGTCTCCC
DNA 2: TGGTGGCTACGACGGGATT
B4: GUAACUG (DNA:RNA)
RNA: B1 RNA with U27A, C28A, A30U, A31G
DNA 1: CAATCTGAATTCCGGTCTCCC
DNA 2: TGGTGGCTACGACGGGATT
B5: UACCCUU (DNA:RNA)
RNA: B1 RNA with G25U, U26A, U27C, A30U, A31U
DNA 1: CAATCTGAATTCCGGTCTCCC
DNA 2: TGGTGGCTACGACGGGATT
B6: CUUUAUA (DNA:RNA)
RNA: B1 RNA with G25C, C28U, C29A, A30U
DNA 1: CAATCTGAATTCCGGTCTCCC
DNA 2: TGGTGGCTACGACGGGATT
B7: GCCUACC (DNA:RNA)
RNA: B1 RNA with U26C, U27C, C28U, C29A, A30C, A31C
DNA 1: CAATCTGAATTCCGGTCTCCC
DNA 2: TGGTGGCTACGACGGGATT
B8: GGGCGUG (DNA:RNA)
RNA: B1 RNA with U26G, U27G, C29G, A30U, A31G
DNA 1: CAATCTGAATTCCGGTCTCCC
DNA 2: TGGTGGCTACGACGGGATT
B9: AGUGUCA (DNA:RNA)
RNA: B1 RNA with G25A, U26G, C28G, C29U, A30C
DNA 1: CAATCTGAATTCCGGTCTCCC
DNA 2: TGGTGGCTACGACGGGATT
B10: GUGAAGC (DNA:RNA)
RNA: B1 RNA with U27G, C28A, C29A, A30G, A31C
DNA 1: CAATCTGAATTCCGGTCTCCC
DNA 2: TGGTGGCTACGACGGGATT
B11: AUACACA (DNA:RNA)
RNA: B1 RNA with G25A, U27A, C29A, A30C
DNA 1: CAATCTGAATTCCGGTCTCCC
DNA 2: TGGTGGCTACGACGGGATT
B12: CUAUACC (DNA:RNA)
RNA: B1 RNA with G25C, U27A, C28U, C29A, A30C, A31C
DNA 1: CAATCTGAATTCCGGTCTCCC
DNA 2: TGGTGGCTACGACGGGATT
B13: GGUGCAU (DNA:RNA)
RNA: B1 RNA with U26G, C28G, A31U
DNA 1: CAATCTGAATTCCGGTCTCCC
DNA 2: TGGTGGCTACGACGGGATT
B14: CAGGGAU (DNA:RNA)
RNA: B1 RNA with G25C, U26A, U27G, C28G, C29G, A31U
DNA 1: CAATCTGAATTCCGGTCTCCC
DNA 2: TGGTGGCTACGACGGGATT
B15: AUGUCGU (DNA:RNA)
RNA: B1 RNA with G25A, U27G, C28U, A30G, A31U
DNA 1: CAATCTGAATTCCGGTCTCCC
DNA 2: TGGTGGCTACGACGGGATT
B16: GGCAGCU (DNA:RNA)
RNA: B1 RNA with U26G, U27C, C28A, C29G, A30C, A31U
DNA 1: CAATCTGAATTCCGGTCTCCC
DNA 2: TGGTGGCTACGACGGGATT
B17: AAUGCGG (DNA:RNA)
RNA: B1 RNA with G25A, U26A, C28G, A30G, A31G
DNA 1: CAATCTGAATTCCGGTCTCCC
DNA 2: TGGTGGCTACGACGGGATT
B18: UUAAUGU (DNA:RNA)
RNA: B1 RNA with G25U, U27A, C28A, C29U, A30G, A31U
DNA 1: CAATCTGAATTCCGGTCTCCC
DNA 2: TGGTGGCTACGACGGGATT
B19: CAUUAAC (DNA:RNA)
RNA: B1 RNA with G25C, U26A, C28U, C29A, A31C
DNA 1: CAATCTGAATTCCGGTCTCCC
DNA 2: TGGTGGCTACGACGGGATT
B20: UUCGUUC (DNA:RNA)
RNA: B1 RNA with G25U, U27C, C28G, C29U, A30U, A31C
DNA 1: CAATCTGAATTCCGGTCTCCC
DNA 2: TGGTGGCTACGACGGGATT
B21: UCCGGCG (DNA:RNA)
RNA: GGGAGACCGGAAUUCAGAUUGUCCUCCGGCGUUAAAUCCCGUCGUAGCCACCA
DNA 1: CAATCTGAATTCCGGTCTCCC
DNA 2: TGGTGGCTACGACGGGATT
B22: UGUGCAC (DNA:RNA)
RNA: B1 RNA with G25U, U26G, C28G, A31C
DNA 1: CAATCTGAATTCCGGTCTCCC
DNA 2: TGGTGGCTACGACGGGATT
B23: GCUUGGG (DNA:RNA)
RNA: B21 RNA with U25G, C27U, G28U, C30G
DNA 1: CAATCTGAATTCCGGTCTCCC
DNA 2: TGGTGGCTACGACGGGATT
B24: AAUUAUU (DNA:RNA)
RNA: B1 RNA with G25A, U26A, C28U, C29A, A30U, A31U
DNA 1: CAATCTGAATTCCGGTCTCCC
DNA 2: TGGTGGCTACGACGGGATT
B25: GGUCACG (DNA:RNA)
RNA: B1 RNA with U26G, C29A, A30C, A31G
DNA 1: CAATCTGAATTCCGGTCTCCC
DNA 2: TGGTGGCTACGACGGGATT
B26: AUAUUGG (DNA:RNA)
RNA: B1 RNA with G25A, U27A, C28U, C29U, A30G, A31G
DNA 1: CAATCTGAATTCCGGTCTCCC
DNA 2: TGGTGGCTACGACGGGATT
B27: GCAAUAG (DNA:RNA)
RNA: B1 RNA with U26C, U27A, C28A, C29U, A31G
DNA 1: CAATCTGAATTCCGGTCTCCC
DNA 2: TGGTGGCTACGACGGGATT
B28: UCUGUGG (DNA:RNA)
RNA: B21 RNA with C27U, G29U, C30G
DNA 1: CAATCTGAATTCCGGTCTCCC
DNA 2: TGGTGGCTACGACGGGATT
B29: UUUAUCA (DNA:RNA)
RNA: B1 RNA with G25U, C28A, C29U, A30C
DNA 1: CAATCTGAATTCCGGTCTCCC
DNA 2: TGGTGGCTACGACGGGATT
B30: CACCAAA (DNA:RNA)
RNA: B1 RNA with G25C, U26A, U27C, C29A
DNA 1: CAATCTGAATTCCGGTCTCCC
DNA 2: TGGTGGCTACGACGGGATT
B31: UAAAGCC (DNA:RNA)
RNA: B21 RNA with C26A, C27A, G28A, G31C
DNA 1: CAATCTGAATTCCGGTCTCCC
DNA 2: TGGTGGCTACGACGGGATT

Target: T1, RBFOX1 RRM
Experiment: EMSA; HiTS-Eq, 1 nM pool, 10 min; buffer printed only for the single-RNA assays: 10 mM Tris pH 7.5, 150 mM NaCl, 3.4 mM EDTA, 0.001% NP-40, 30 C
Conditions: tags: His6 N-terminal (pET28a); label: 5' 32P
Summary of the method: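 Purified wild-type or mutant RbFox RRM at increasing concentrations was equilibrated with 1 nM of 5′-radiolabelled RNA carrying 7 randomized nucleotides for 10 min in 50 µL. Unbound RNA was separated by 8% native PAGE and sequenced. Relative association constants came from read-count changes of each RNA species compared with the control reaction, normalised to the cognate motif.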

Binder | binding signal
B1 | 0.0057 KA relative to UGCAUGU
B2 | 0.00296 KA relative to UGCAUGU
B3 | 0.0121 KA relative to UGCAUGU
B4 | 0.0131 KA relative to UGCAUGU
B5 | 0.00183 KA relative to UGCAUGU
B6 | 0.00365 KA relative to UGCAUGU
B7 | 0.00684 KA relative to UGCAUGU
B8 | 0.0291 KA relative to UGCAUGU
B9 | 0.00991 KA relative to UGCAUGU
B10 | 0.0118 KA relative to UGCAUGU
B11 | 0.000269 KA relative to UGCAUGU
B12 | 0.00079 KA relative to UGCAUGU
B13 | 0.0241 KA relative to UGCAUGU
B14 | 0.0133 KA relative to UGCAUGU
B15 | 0.0142 KA relative to UGCAUGU
B16 | 0.0114 KA relative to UGCAUGU

Binder | binding signal
B17 | 0.0113 KA relative to UGCAUGU
B18 | 0.0122 KA relative to UGCAUGU
B19 | 0.000395 KA relative to UGCAUGU
B20 | 0.0129 KA relative to UGCAUGU
B21 | 0.00745 KA relative to UGCAUGU
B22 | 0.0241 KA relative to UGCAUGU
B23 | 0.0124 KA relative to UGCAUGU
B24 | 0.00113 KA relative to UGCAUGU
B25 | 0.00945 KA relative to UGCAUGU
B26 | 0.00681 KA relative to UGCAUGU
B27 | 0.00829 KA relative to UGCAUGU
B28 | 0.0135 KA relative to UGCAUGU
B29 | 0.00356 KA relative to UGCAUGU
B30 | 0.00153 KA relative to UGCAUGU
B31 | 0.00626 KA relative to UGCAUGU
